# Data reported in the supplement of paper PMC8728848.
# Some of the results follow.
# Columns and labels:
# Test in all cases: glycan array binding signal (z-score within array); higher = stronger binding
# Details in all cases: glycan notation: IUPAC condensed, linker removed
# [1] = biological target: Gal(b1-4)GlcNAc(b1-3)Gal(b1-3)GlcNAc
# Outline: (§1)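 Glycan array data came from 3228 arrays in the Consortium for Functional Glycomics database, and only arrays with an available protein sequence were kept. Glycan names were put into IUPAC-condensed notation, and columns mapping to the same glycan were averaged. The binding signal is a within-array Z-score, averaged across arrays of one protein sequence run at different concentrations or buffers and across linkers. A negative Z-score can be read as non-binding.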
# [2] = biological target: Gal(b1-4)GlcNAc(b1-3)Gal(b1-4)Glc
# Outline: as §1
# [3] = biological target: Gal(b1-4)GlcNAc(b1-3)Gal(b1-4)GlcNAc
# Outline: as §1
# [4] = biological target: Gal(b1-4)GlcNAc(b1-3)Gal(b1-4)GlcNAc(b1-2)Man(a1-3)[Gal(b1-4)GlcNAc(b1-3)Gal(b1-4)GlcNAc(b1-2)Man(a1-6)]Man(b1-4)GlcNAc(b1-4)GlcNAc
# Outline: as §1
# [5] = biological target: Gal(b1-4)GlcNAc(b1-3)Gal(b1-4)GlcNAc(b1-2)Man(a1-3)[Gal(b1-4)GlcNAc(b1-3)Gal(b1-4)GlcNAc(b1-2)Man(a1-6)]Man(b1-4)GlcNAc(b1-4)[Fuc(a1-6)]GlcNAc
# Outline: as §1
# [6] = biological target: Gal(b1-4)GlcNAc(b1-3)Gal(b1-4)GlcNAc(b1-2)[Gal(b1-4)GlcNAc(b1-3)Gal(b1-4)GlcNAc(b1-6)]Man(a1-6)[Gal(b1-4)GlcNAc(b1-3)Gal(b1-4)GlcNAc(b1-2)Man(a1-3)]Man(b1-4)GlcNAc(b1-4)GlcNAc
# Outline: as §1
# [7] = biological target: Gal(b1-4)GlcNAc(b1-3)Gal(b1-4)GlcNAc(b1-2)[Gal(b1-4)GlcNAc(b1-3)Gal(b1-4)GlcNAc(b1-6)]Man(a1-6)[Gal(b1-4)GlcNAc(b1-3)Gal(b1-4)GlcNAc(b1-2)Man(a1-3)]Man(b1-4)GlcNAc(b1-4)[Fuc(a1-6)]GlcNAc
# Outline: as §1
# [8] = biological target: Gal(b1-4)GlcNAc(b1-3)Gal(b1-4)GlcNAc(b1-3)Gal(b1-4)GlcNAc
# Outline: as §1
# [9] = biological target: Gal(b1-4)GlcNAc(b1-3)Gal(b1-4)GlcNAc(b1-3)Gal(b1-4)GlcNAc(b1-2)Man(a1-3)[Gal(b1-4)GlcNAc(b1-3)Gal(b1-4)GlcNAc(b1-3)Gal(b1-4)GlcNAc(b1-2)Man(a1-6)]Man(b1-4)GlcNAc(b1-4)GlcNAc
# Outline: as §1
# [10] = biological target: Gal(b1-4)GlcNAc(b1-3)Gal(b1-4)GlcNAc(b1-3)Gal(b1-4)GlcNAc(b1-2)Man(a1-3)[Gal(b1-4)GlcNAc(b1-3)Gal(b1-4)GlcNAc(b1-3)Gal(b1-4)GlcNAc(b1-2)Man(a1-6)]Man(b1-4)GlcNAc(b1-4)[Fuc(a1-6)]GlcNAc
# Outline: as §1
# [11] = biological target: Gal(b1-4)GlcNAc(b1-3)Gal(b1-4)GlcNAc(b1-3)Gal(b1-4)GlcNAc(b1-2)[Gal(b1-4)GlcNAc(b1-3)Gal(b1-4)GlcNAc(b1-3)Gal(b1-4)GlcNAc(b1-6)]Man(a1-6)[Gal(b1-4)GlcNAc(b1-3)Gal(b1-4)GlcNAc(b1-3)Gal(b1-4)GlcNAc(b1-2)Man(a1-3)]Man(b1-4)GlcNAc(b1-4)[Fuc(a1-6)]GlcNAc
# Outline: as §1
# [12] = biological target: Gal(b1-4)GlcNAc(b1-3)Gal(b1-4)GlcNAc(b1-3)Gal(b1-4)GlcNAc(b1-3)Gal(b1-4)GlcNAc(b1-2)Man(a1-3)[Gal(b1-4)GlcNAc(b1-3)Gal(b1-4)GlcNAc(b1-3)Gal(b1-4)GlcNAc(b1-3)Gal(b1-4)GlcNAc(b1-2)Man(a1-6)]Man(b1-4)GlcNAc(b1-4)GlcNAc
# Outline: as §1
# [13] = biological target: Gal(b1-4)GlcNAc(b1-3)Gal(b1-4)GlcNAc(b1-3)Gal(b1-4)GlcNAc(b1-3)Gal(b1-4)GlcNAc(b1-2)Man(a1-3)[Gal(b1-4)GlcNAc(b1-3)Gal(b1-4)GlcNAc(b1-3)Gal(b1-4)GlcNAc(b1-3)Gal(b1-4)GlcNAc(b1-2)Man(a1-6)]Man(b1-4)GlcNAc(b1-4)[Fuc(a1-6)]GlcNAc
# Outline: as §1
# [14] = biological target: Gal(b1-4)GlcNAc(b1-3)Gal(b1-4)GlcNAc(b1-3)Gal(b1-4)GlcNAc(b1-3)Gal(b1-4)GlcNAc(b1-2)[Gal(b1-4)GlcNAc(b1-3)Gal(b1-4)GlcNAc(b1-3)Gal(b1-4)GlcNAc(b1-3)Gal(b1-4)GlcNAc(b1-6)]Man(a1-6)[Gal(b1-4)GlcNAc(b1-3)Gal(b1-4)GlcNAc(b1-3)Gal(b1-4)GlcNAc(b1-3)Gal(b1-4)GlcNAc(b1-2)Man(a1-3)]Man(b1-4)GlcNAc(b1-4)[Fuc(a1-6)]GlcNAc
# Outline: as §1
# [15] = biological target: Gal(b1-4)GlcNAc(b1-3)Gal(b1-4)GlcNAc(b1-3)Gal(b1-4)GlcNAc(b1-3)Gal(b1-4)GlcNAc(b1-3)Gal(b1-4)GlcNAc(b1-2)Man(a1-3)[Gal(b1-4)GlcNAc(b1-3)Gal(b1-4)GlcNAc(b1-3)Gal(b1-4)GlcNAc(b1-3)Gal(b1-4)GlcNAc(b1-3)Gal(b1-4)GlcNAc(b1-2)Man(a1-6)]Man(b1-4)GlcNAc(b1-4)GlcNAc
# Outline: as §1
# [16] = biological target: Gal(b1-4)GlcNAc(b1-3)Gal(b1-4)GlcNAc(b1-3)Gal(b1-4)GlcNAc(b1-3)Gal(b1-4)GlcNAc(b1-3)Gal(b1-4)GlcNAc(b1-2)Man(a1-3)[Gal(b1-4)GlcNAc(b1-3)Gal(b1-4)GlcNAc(b1-3)Gal(b1-4)GlcNAc(b1-3)Gal(b1-4)GlcNAc(b1-3)Gal(b1-4)GlcNAc(b1-2)Man(a1-6)]Man(b1-4)GlcNAc(b1-4)[Fuc(a1-6)]GlcNAc
# Outline: as §1
# [17] = biological target: Gal(b1-4)GlcNAc(b1-3)Gal(b1-4)GlcNAc(b1-3)Gal(b1-4)GlcNAc(b1-3)Gal(b1-4)GlcNAc(b1-3)Gal(b1-4)GlcNAc(b1-2)[Gal(b1-4)GlcNAc(b1-3)Gal(b1-4)GlcNAc(b1-3)Gal(b1-4)GlcNAc(b1-3)Gal(b1-4)GlcNAc(b1-3)Gal(b1-4)GlcNAc(b1-6)]Man(a1-6)[Gal(b1-4)GlcNAc(b1-3)Gal(b1-4)GlcNAc(b1-3)Gal(b1-4)GlcNAc(b1-3)Gal(b1-4)GlcNAc(b1-3)Gal(b1-4)GlcNAc(b1-2)Man(a1-3)]Man(b1-4)GlcNAc(b1-4)[Fuc(a1-6)]GlcNAc
# Outline: as §1
# [18] = biological target: Gal(b1-4)GlcNAc(b1-3)Gal(b1-4)GlcNAc(b1-3)Gal(b1-4)GlcNAc(b1-3)Gal(b1-4)GlcNAc(b1-3)Gal(b1-4)GlcNAc(b1-3)Gal(b1-4)GlcNAc(b1-2)Man(a1-3)[Gal(b1-4)GlcNAc(b1-3)Gal(b1-4)GlcNAc(b1-3)Gal(b1-4)GlcNAc(b1-3)Gal(b1-4)GlcNAc(b1-3)Gal(b1-4)GlcNAc(b1-3)Gal(b1-4)GlcNAc(b1-2)Man(a1-6)]Man(b1-4)GlcNAc(b1-4)GlcNAc
# Outline: as §1
# [19] = biological target: Gal(b1-4)GlcNAc(b1-3)Gal(b1-4)GlcNAc(b1-3)GalNAc
# Outline: as §1
binder,measurement,setting,value
"PVL (Psathyrella velutina), Q309D1_9AGAR (protein) MSVVVISQALPVPTRIPGVADLVGFGNGGVYIIRNSLLIQVVKVINNFGYDAGGWRVEKHVRLLADTTGDNQPDVVGFGENGVWISTNNGNNTFVDPPKMVLANFAYAAGGWRVEKHIRFMADLRKTGRADIVGFGDGGIYISRNNGGGQFAPAQLALNNFGYAQGWRLDRHLRFLADVTGDGLLDVVGFGENQVYIARNSGNGTFQPAQAVVNNFCIGAGGWTISAHPRVVADLTGDRKADILGFGVAGVYTSLNNGNGTFGAVNLVLKDFGVNSGWRVEKHVRCVSSLTNKKVGDIIGFGDAGVYVALNNGNGTFGPVKRVIDNFGYNQGWRVDKHPRFVVDLTGDGCADIVGFGENSVWACMNKGDGTFGPIMKLIDDMTVSKGWTLQKTVRYAANLYL",glycan array binding signal (z-score),[1],0.17
same,glycan array binding signal (z-score),[2],-0.168
same,glycan array binding signal (z-score),[3],0.215
same,glycan array binding signal (z-score),[4],-0.244
same,glycan array binding signal (z-score),[5],0.09
same,glycan array binding signal (z-score),[6],-0.171
same,glycan array binding signal (z-score),[7],0.199
same,glycan array binding signal (z-score),[8],-0.277
same,glycan array binding signal (z-score),[9],0.7
same,glycan array binding signal (z-score),[10],0.527
same,glycan array binding signal (z-score),[11],0.536
same,glycan array binding signal (z-score),[12],0.956
same,glycan array binding signal (z-score),[13],0.639
same,glycan array binding signal (z-score),[14],0.917
same,glycan array binding signal (z-score),[15],1.01
same,glycan array binding signal (z-score),[16],0.758
same,glycan array binding signal (z-score),[17],1.08
same,glycan array binding signal (z-score),[18],1.15
same,glycan array binding signal (z-score),[19],0.218
